According to article PMC7251123, “CX-5461 activates the DNA damage response and demonstrates therapeutic efficacy in high-grade serous ovarian cancer” (Nature Communications, 2020):
Where “and” joins values, the source holds several entries; their conditions need not be identical. Equal entries are not always repeated. This continues a long series; more values of the same kind are listed elsewhere.

Test system: Pol I transcription
Assay: Inhibition of Pol I transcription: 47S precursor rRNA levels by quantitative RT-PCR after 1 h treatment
Format: cell-based, human
Settings: individual replicates
Method: Fig. 1 Sensitivity of ovarian cancer (OVCA) cell lines to CX-5461. a CX-5461 doses that induce 50% growth inhibition (GI50) at 48 hours. Error bars represent mean ± standard deviation (SD). Asterisks denote mutated TP53 status. […] Information regarding each cell lines source, mean G1_50 values, SD and N values are outlined in Supplementary Table 1. […] Statistical analysis was performed using a two-sided Mann–Whitney test. Error bars represent mean ± SD. c Baseline rDNA transcription rates of OVCA cell lines (listed in (d)), as determined by quantitative real-time PCR (qRT-PCR) analysis using primers specific to the external transcribed spacer 5’ETS (+413–521 bp) relative to the transcription start site (TSS). Expression levels in each cell line were normalised to Vimentin mRNA and expressed as fold change relative to TOV112D cells. Each dot represents the mean value of n = 3 biologically independent experiments per cell line (Individual data points are provided in Supplementary Data 4). Error bars represent mean ± SD. Statistical analysis was performed using a two-tailed unpaired t test. d Dose-response curves of 47S precursor rRNA levels measured by quantitative RT-PCR. OVCA cell lines were treated with vehicle or increasing drug concentrations of CX-5461 (0.001, 0.01, 0.03, 0.1, 0.3, 1 and 3 μM) for 1 h before RNA was harvested. Expression levels were normalised to Vimentin mRNA and expressed as fold change relative to vehicle-treated controls. Shown are the mean of n = 3 independent biological experiments for each cell line. (Individual data points are provided in Supplementary Data 4). e The mean inhibitory concentration values that led to 50% transcription inhibition (IC50) (of n = 3 biologically independent experiments for each cell line) from D are presented (Individual data points are provided in Supplementary Data 4). Error bars represent mean ± SD. Statistical analysis was performed using a two-sided Mann–Whitney test.
For Reverse-transcription qPCR analysis, cells were lysed, RNA extracted, and first-strand cDNA synthesized using random hexamer primers (Promega, C1181) and Superscript III (Invitrogen,18080044). Quantitative PCR (qPCR) was performed in duplicate using the FAST SYBR Green dye (Applied Biosystems, 4385610) on the StepOnePlus real-time PCR system (Applied Biosystems). Primer sequences are listed in (Supplementary Table 3).
Dose-response curves of 4 7S precursor rRNA levels (Figure 1D) measured by quantitative RT-PCR after 1h treatment. Expression levels
were normalised to Vimentin mRNA and expressed as fold change relative to vehicle-treated controls.
IC50 doses (Figure 1E) were determined from dose response curves in Figure 1D
using GraphPad Prism version 8.

Cc1cnc(CNC(=O)c2c(=O)c3ccc(N4CCCN(C)CC4)nc3n3c2sc2ccccc23)cn1 [CX-5461]
47S precursor rRNA level, fold change relative to vehicle-treated controls (2008, CX-5461 0.00000001 M): 1.25 and 0.8749 and 0.5461
47S precursor rRNA level, fold change relative to vehicle-treated controls (2008, CX-5461 0.00000003 M): 1.218 and 0.7539 and 0.7017
47S precursor rRNA level, fold change relative to vehicle-treated controls (2008, CX-5461 0.0000001 M): 0.3766 and 0.4551 and 0.3116
47S precursor rRNA level, fold change relative to vehicle-treated controls (2008, CX-5461 0.0000003 M): 0.3413 and 0.1927 and 0.2865
47S precursor rRNA level, fold change relative to vehicle-treated controls (2008, CX-5461 0.000001 M): 0.126 and 0.1434 and 0.2615
47S precursor rRNA level, fold change relative to vehicle-treated controls (2008, CX-5461 0.000003 M): 0.1693 and 0.1357 and 0.1227
47S precursor rRNA level, fold change relative to vehicle-treated controls (2008, CX-5461 1E-09 M): 0.766 and 1.143 and 0.9219
47S precursor rRNA level, fold change relative to vehicle-treated controls (COLO704, CX-5461 0.00000001 M): 1.588 and 1.201 and 0.9746
47S precursor rRNA level, fold change relative to vehicle-treated controls (COLO704, CX-5461 0.00000003 M): 1.145 and 1.011 and 0.8795
47S precursor rRNA level, fold change relative to vehicle-treated controls (COLO704, CX-5461 0.0000001 M): 1.046 and 0.7198 and 0.4937
47S precursor rRNA level, fold change relative to vehicle-treated controls (COLO704, CX-5461 0.0000003 M): 0.543 and 0.394 and 0.1851
47S precursor rRNA level, fold change relative to vehicle-treated controls (COLO704, CX-5461 0.000001 M): 0.1904 and 0.2302 and 0.15
47S precursor rRNA level, fold change relative to vehicle-treated controls (COLO704, CX-5461 0.000003 M): 0.2758 and 0.2069 and 0.158
47S precursor rRNA level, fold change relative to vehicle-treated controls (COLO704, CX-5461 1E-09 M): 1.389 and 1.175 and 0.9568
47S precursor rRNA level, fold change relative to vehicle-treated controls (ES2, CX-5461 0.00000001 M): 1.444 and 0.8594 and 1.111
47S precursor rRNA level, fold change relative to vehicle-treated controls (ES2, CX-5461 0.00000003 M): 1.008 and 0.7338 and 0.7027
47S precursor rRNA level, fold change relative to vehicle-treated controls (ES2, CX-5461 0.0000001 M): 0.3619 and 0.4772 and 0.4706
47S precursor rRNA level, fold change relative to vehicle-treated controls (ES2, CX-5461 0.0000003 M): 0.1013 and 0.1961 and 0.2168
47S precursor rRNA level, fold change relative to vehicle-treated controls (ES2, CX-5461 0.000001 M): 0.06644 and 0.07582 and 0.1269
47S precursor rRNA level, fold change relative to vehicle-treated controls (ES2, CX-5461 0.000003 M): 0.06957 and 0.08958 and 0.2275
47S precursor rRNA level, fold change relative to vehicle-treated controls (ES2, CX-5461 1E-09 M): 1.154 and 0.9992 and 1.133
47S precursor rRNA level, fold change relative to vehicle-treated controls (IGROV1, CX-5461 0.00000001 M): 0.8496 and 0.8934 and 0.8387
47S precursor rRNA level, fold change relative to vehicle-treated controls (IGROV1, CX-5461 0.00000003 M): 0.4119 and 0.4259 and 0.6157
47S precursor rRNA level, fold change relative to vehicle-treated controls (IGROV1, CX-5461 0.0000001 M): 0.2872 and 0.5394 and 0.677
47S precursor rRNA level, fold change relative to vehicle-treated controls (IGROV1, CX-5461 0.0000003 M): 0.05697 and 0.2582 and 0.3609
47S precursor rRNA level, fold change relative to vehicle-treated controls (IGROV1, CX-5461 0.000001 M): 0.1021 and 0.1132 and 0.1982
47S precursor rRNA level, fold change relative to vehicle-treated controls (IGROV1, CX-5461 0.000003 M): 0.08732 and 0.1037 and 0.1488
47S precursor rRNA level, fold change relative to vehicle-treated controls (IGROV1, CX-5461 1E-09 M): 0.6477 and 0.957 and 1.1
47S precursor rRNA level, fold change relative to vehicle-treated controls (JHOM1, CX-5461 0.00000001 M): 1.161 and 1.172 and 1.101
47S precursor rRNA level, fold change relative to vehicle-treated controls (JHOM1, CX-5461 0.00000003 M): 0.8692 and 1.051 and 0.8577
47S precursor rRNA level, fold change relative to vehicle-treated controls (JHOM1, CX-5461 0.0000001 M): 0.6535 and 0.9882 and 0.8497
47S precursor rRNA level, fold change relative to vehicle-treated controls (JHOM1, CX-5461 0.0000003 M): 0.4896 and 0.5342 and 0.5547
47S precursor rRNA level, fold change relative to vehicle-treated controls (JHOM1, CX-5461 0.000001 M): 0.2376 and 0.3036 and 0.2843
47S precursor rRNA level, fold change relative to vehicle-treated controls (JHOM1, CX-5461 0.000003 M): 0.1492 and 0.09725 and 0.07588
47S precursor rRNA level, fold change relative to vehicle-treated controls (JHOM1, CX-5461 1E-09 M): 0.9272 and 0.955 and 0.9965
47S precursor rRNA level, fold change relative to vehicle-treated controls (Kuramochi, CX-5461 0.00000001 M): 0.7271 and 1.527 and 1.169
47S precursor rRNA level, fold change relative to vehicle-treated controls (Kuramochi, CX-5461 0.00000003 M): 0.6776 and 1.072 and 0.895
